Data from paper PMC4336329 (PLoS ONE, 2015).
Hit rate of the full screen: of about 310,000 compounds, about 2,200 (0.71%) showed an effect of 50% or more. The effect is printed as a negative number. The list shows a part of the results.

biological target: human ether-à-go-go-related gene (hERG) potassium channel (human, UniProt Q12809); test: primary screen, population patch clamp on CHO cells stably expressing hERG
Sequence (Q12809 whole entry, looked up): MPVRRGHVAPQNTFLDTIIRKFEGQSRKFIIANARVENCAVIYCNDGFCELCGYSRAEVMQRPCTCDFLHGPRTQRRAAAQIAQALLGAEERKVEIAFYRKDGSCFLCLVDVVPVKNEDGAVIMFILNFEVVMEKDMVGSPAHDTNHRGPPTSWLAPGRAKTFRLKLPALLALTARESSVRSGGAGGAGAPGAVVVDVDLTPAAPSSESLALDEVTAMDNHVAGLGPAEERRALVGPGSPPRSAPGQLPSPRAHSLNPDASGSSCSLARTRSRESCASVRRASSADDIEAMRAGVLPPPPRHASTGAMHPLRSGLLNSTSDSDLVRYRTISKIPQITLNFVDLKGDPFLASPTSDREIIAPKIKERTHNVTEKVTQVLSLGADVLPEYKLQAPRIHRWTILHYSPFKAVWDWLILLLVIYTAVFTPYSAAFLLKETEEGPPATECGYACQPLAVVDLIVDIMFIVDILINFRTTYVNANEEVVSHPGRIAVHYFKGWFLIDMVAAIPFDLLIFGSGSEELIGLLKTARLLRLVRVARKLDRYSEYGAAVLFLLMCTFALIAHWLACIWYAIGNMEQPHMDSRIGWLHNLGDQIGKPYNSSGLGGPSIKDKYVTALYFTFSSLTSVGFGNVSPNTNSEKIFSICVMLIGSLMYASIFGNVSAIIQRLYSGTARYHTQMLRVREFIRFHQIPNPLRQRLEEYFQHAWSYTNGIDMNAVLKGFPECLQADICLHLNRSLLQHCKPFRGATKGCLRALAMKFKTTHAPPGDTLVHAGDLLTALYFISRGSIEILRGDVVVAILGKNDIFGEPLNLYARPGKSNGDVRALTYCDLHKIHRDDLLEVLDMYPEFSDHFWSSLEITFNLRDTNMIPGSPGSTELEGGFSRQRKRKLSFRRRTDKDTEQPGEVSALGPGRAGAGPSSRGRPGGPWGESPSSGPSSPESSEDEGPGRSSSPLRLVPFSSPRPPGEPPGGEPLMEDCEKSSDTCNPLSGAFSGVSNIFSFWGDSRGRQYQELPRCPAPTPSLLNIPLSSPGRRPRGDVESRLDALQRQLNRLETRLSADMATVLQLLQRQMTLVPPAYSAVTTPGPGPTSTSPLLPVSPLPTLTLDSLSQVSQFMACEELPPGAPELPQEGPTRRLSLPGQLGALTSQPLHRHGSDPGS

Structure (SMILES) | hERG current change (%, negative = inhibition) at 1uM
COc1ccc(NC(=O)CSc2nnc(NC(=O)c3ccccc3C(=O)O)s2)cc1 | 5.47%
CCCN(CCC)CCCNC(=O)c1cc2c(=O)[nH]c3ccccc3c2n1C | 10.7%
N=C1C(c2nc3ccccc3s2)=C(O)CN1NC(=O)c1ccco1 | 0.934%
CC(C)CC(=O)Nc1ccccc1N1CCOCC1 | 8.95%
c1cnc(NC2C3CC4CC(C3)CC2C4)nc1 (centres unmarked) | 6.75%
CNC(=O)c1csc(-c2ccc(C)cc2)n1 | 11.7%
COc1ccc(C(=O)CSc2nnc(CNC(=O)c3ccc(OC)cc3)n2C)cc1 | 11.5%
CCOc1ccccc1NC(=O)NC(=O)N(C)S(C)(=O)=O | 2.02%
O=S(=O)(Nc1ncccn1)c1ccccc1 | 7.28%
CCOC(=O)c1c(NC(=O)CSc2nnc(-c3ccccc3)o2)sc(C(C)=O)c1C | 9.59%
O=C(Nc1c2c(nn1-c1ccccc1)CS(=O)(=O)C2)c1ccccc1C(F)(F)F | 11.4%
O=C(O)CCc1nc(-c2cccs2)no1 | 11.6%
COc1ccc(CNC(=O)c2ccc(Cn3cc(Br)cn3)o2)cc1 | 13.9%
O=c1[nH]c(=O)n(C2CCCO2)cc1F (centres unmarked) | 2.04%
C/C(=C\c1ccccc1)C(=O)N1CCN(c2cccc(C(F)(F)F)c2)CC1 | 2.79%
CCCNC(=O)c1onc(CSc2ccc(Cl)cc2)c1C(=O)NCC1CC1 | 2.65%
COc1ccc(NS(=O)(=O)c2ccc(O)c(C(=O)OCC(=O)N3CC(C)OC(C)C3)c2)cc1 (centres unmarked) | 12.3%
COc1ccc(CNC(=O)CCS(=O)(=O)c2ccc3c(c2)NC(=O)C(C)S3)cc1 (centres unmarked) | 14.6%
CCOc1ccc(-c2csc(NC(=O)C3CCCO3)n2)cc1 (centres unmarked) | 5.89%
O=C(NC1CCCCC1)N1CCN(Cc2nc3ccccc3c(=O)[nH]2)CC1 | -1.68%
Cc1cccc(CN2CCC(C(=O)Nc3cccc(-c4cscn4)c3)CC2)n1 | -4.56%
O=C(C1CCC(CNS(=O)(=O)c2cccs2)CC1)N1CCN(c2ccc(Cl)cc2)CC1 (centres unmarked) | -15.6%
CC(O)CNc1nc(Cl)c(C#N)s1 (centres unmarked) | 2.67%

Structure (SMILES) | hERG current change (%, negative = inhibition) at 1uM
CC(=O)Nc1ccc(NC(=O)COC(=O)[C@@H](NC(=O)c2ccc(F)cc2)C(C)C)cc1 | 13.6%
COc1ccc(S(=O)(=O)NC(C)C(=O)Nc2cccc([N+](=O)[O-])c2)cc1 (centres unmarked) | 13.4%
CCOC(=O)CC(=O)CSc1nc(-c2ccc3c(c2)OCO3)cc(C(F)(F)F)c1C#N | 6.83%
CN(C)S(=O)(=O)c1ccc(Cl)c(C(=O)OCC(=O)NNC(=O)c2cccs2)c1 | 5.6%
CC(C)CCNC(=O)C1CCN(C(=O)N(C)C)CC1 | 13.8%
CCOc1ccc2[nH]c(=O)c(C(c3nnnn3CCOC)N3CCOCC3)cc2c1 (centres unmarked) | 6.89%
CC(C)N1CCc2c(sc(NC(=O)c3ccc(C(=O)c4ccccc4)cc3)c2C(N)=O)C1.Cl | 4.9%
O=C(Nc1c(S(=O)(=O)c2ccc(Cl)cc2)csc1Br)c1ccccc1Cl | 7.8%
Cc1ccc(/C=N/Nc2ccc(Cl)nn2)cc1 | 10.9%
CCOc1ccc(OCCC(=O)OCC(=O)Nc2cc(C)nn2-c2ccccc2)cc1 | -3.55%
O=[N+]([O-])c1cccc(-c2ccc(CN3CCCCC3)o2)c1 | -1.72%
CCn1nccc1C(=O)Nc1ccc(Cl)c(Cl)c1 | -13.4%
Cc1cccc(N2CCN(c3nc4ccccc4n4cnnc34)CC2)c1C | 18.6%
Cc1cccc(NC(=O)C2CCCN(S(=O)(=O)c3ccc(-n4cnnn4)cc3)C2)c1 (centres unmarked) | -21.9%
CCS(=O)(=O)NCC(c1ccco1)N1CCN(c2ccc(F)cc2)CC1 (centres unmarked) | -1.32%
Cl.OC(COc1ccc(Br)cc1)CN1CCCC1 (centres unmarked) | 5.23%
CCO[C@@H]1OC(C(=O)O)=C[C@H](c2cn(C(C)=O)c3ccccc23)[C@H]1CCCO | 15.9%
CC(C)(CO)C(O)C(=O)NCCC#N (centres unmarked) | 4.85%
O=C(Nc1ccc(S(=O)(=O)Nc2ncccn2)cc1)c1ccccc1NS(=O)(=O)c1ccc(Cl)cc1 | 12.9%
O=C(CSc1nc2ccccc2s1)NCC1CCCO1 (centres unmarked) | 9.94%
COc1ccc(OCCSc2nc3ccccc3n2CC(=O)O)cc1 | 12.3%
CSc1nnc(C)c(=O)n1COC(=O)c1ccc(S(=O)(=O)N(C)C)cc1 | -0.398%
Cc1ccc(C(=O)NCCn2ccc3ccccc32)cc1[N+](=O)[O-] | -2.16%

Structure (SMILES) | hERG current change (%, negative = inhibition) at 1uM
O=c1nc2ccccc2c(NS(=O)(=O)c2ccc(Cl)cc2)n1-c1ccccc1 | -4.68%
CCCOc1ccc(/C=C2\SC(N)=NC2=O)cc1OC | 10.1%
O=C(Nc1cc(Cl)cc(Cl)c1)c1ccno1 | 10.7%
CCC1CN(C(=O)N2CCC(C(=O)NCc3cc(OC)c(OC)c(OC)c3)CC2)c2ccccc2O1 (centres unmarked) | 17.9%
CCOc1ccc(S(=O)(=O)N2CCCC(C(=O)NCc3cccnc3)C2)cc1 (centres unmarked) | 6.61%
Cc1ccc(COc2ccsc2-c2n[nH]c(=S)n2C)cc1 | 8.51%
NC(=O)CC[C@@H]1NC(=O)[C@@H]2CCCN2C(=O)c2cc([N+](=O)[O-])cc(I)c2NCCC[C@@H](C(N)=O)NC1=O | 7.17%
Cc1cccc(OCC(=O)NCCCNC(=O)c2cccnc2)c1 | 24.7%
O=C(NCCCCNC(=O)c1c(Cl)cccc1Cl)c1c(Cl)cccc1Cl | 7.84%
NC(=O)C(c1ccc(Cl)cc1)c1ncc(C(F)(F)F)cc1Cl (centres unmarked) | 5.34%
CCc1nc2ccc(C(=O)N(CC)CC(=O)Nc3c(F)cccc3F)cc2nc1CC | 11.4%
O=C(Nc1cccc(Cl)c1Cl)C1CCN(C(=O)c2cccs2)CC1 | 3.9%
O=C(NCC(O)c1ccc([N+](=O)[O-])cc1)C(c1ccccc1)c1ccccc1 (centres unmarked) | 12%
N#CCC(=O)N/N=C/c1ccc(OS(=O)(=O)c2ccccc2)cc1 | 17.9%
C/C(=N\NC(=O)c1c(C)nc2ccccn12)c1cccc([N+](=O)[O-])c1 | 6.38%
COCCNC(=O)C1CCC(CNS(=O)(=O)c2cccc3nsnc23)CC1 (centres unmarked) | 12.6%
O=C1/C(=C/c2ccc([N+](=O)[O-])cc2)N2CCC1CC2 | 5.22%
CCNc1ccc([N+](=O)[O-])cc1 | 8.09%
NC(=S)N/N=C/c1ccc(-n2nncc2-c2ccc(Cl)cc2)cc1 | -7.18%
COc1cc(C2C(C#N)=C(N)Oc3c2ccc2ccccc32)ccc1OCC(=O)Nc1cccc(C)c1 (centres unmarked) | 14.4%
O=C(NCc1ccccc1)NC(=O)c1ccc(Cl)cc1 | 20%
COC(=O)C1=C(c2ccc(OC)c(OC)c2)C[C@@H]2CC[C@H]1N2C(=O)NCc1cccc2ccccc12 | 6.27%
Cc1ccc(OCC(=O)N2CCN(S(C)(=O)=O)CC2)cc1 | 12.4%

Structure (SMILES) | hERG current change (%, negative = inhibition) at 1uM
Brc1ccc(-[n+]2c(-c3ccccc3)cc(-c3ccccc3)cc2-c2ccccc2)cc1.[O-][Cl+3]([O-])([O-])[O-] | -18.7%
CC(=O)O.CC(NO)/C(=N\O)c1cccs1 (centres unmarked) | 17.2%
O=C(Nc1cccs1)NC1CCCC1 | 6.67%
CCCCCCCNC(=O)c1ccc(N2CCC3(CC2)OCCO3)c([N+](=O)[O-])c1 | -1.11%
CC(C)c1ccc(NC(=S)NN(c2ccccc2)c2ccccc2)cc1 | 15%
c1ccc([C@@H]2CO2)cc1 | 18%
COc1cccc(/C=C2\CCC(C3CCCC3)C2=O)c1 (centres unmarked) | 11.3%
COc1ccc(S(N)(=O)=O)cc1C(=O)OCC1CCCCC1 | 0.182%
CC1CCCCC12NC(=O)N(CC(=O)N1CCN(C(=O)c3cccs3)CC1)C2=O (centres unmarked) | 3.76%
O=C(O)/C=C/C(=O)NCCCc1ccccc1 | 8.24%
CCO/C=C1\C(=O)N(CC)c2ccccc21 | 5.86%
CCC(C(=O)NCc1ccncc1)c1ccccc1 (centres unmarked) | 14.8%
O=C(CN1CC[n+]2c(-c3cccs3)csc21)c1ccc(-c2ccccc2)cc1.[Br-] | -13.2%
O=C(COC(=O)CCCSc1nc2ccccc2[nH]1)Nc1cccc(F)c1 | 1.63%
COc1ccc(CCNC(=O)CSc2ccsc2[N+](=O)[O-])cc1OC | 0.368%
O=C(Nc1cccc2cccc(NC(=O)c3ccco3)c12)c1ccco1 | 12.3%
Cc1ccc(C2=C(O)c3ccccc3C(=O)C2=O)cc1 | 12.5%
Cc1nc(C)c(-c2csc(Nc3ccc(C(=O)O)c(O)c3)n2)s1 | 12.2%
CCCc1c(O)nc(SCCN(CC)CC)[nH]c1=O.Cl | 15.2%
Cc1ccc(C(=C2C3C=CC2C2C(=O)NC(=O)C32)c2ccc(C)cc2)cc1 (centres unmarked) | 14.5%
